Measurements reported in article PMC4336329 (PLoS ONE, 2015).
Hit rate of the full screen: of about 310,000 compounds, about 14,000 (4.5%) showed an effect of 50% or more. Effects have a minus sign here. The list shows a part of the results.

Target: human ether-à-go-go-related gene (hERG) potassium channel (human, UniProt Q12809)
Experiment: primary screen, population patch clamp on CHO cells stably expressing hERG
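Also: peak tail current of the secondary pulse compared with the same well before compound.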

Chain of human ether-à-go-go-related gene (hERG) potassium channel (Q12809 whole entry, looked up): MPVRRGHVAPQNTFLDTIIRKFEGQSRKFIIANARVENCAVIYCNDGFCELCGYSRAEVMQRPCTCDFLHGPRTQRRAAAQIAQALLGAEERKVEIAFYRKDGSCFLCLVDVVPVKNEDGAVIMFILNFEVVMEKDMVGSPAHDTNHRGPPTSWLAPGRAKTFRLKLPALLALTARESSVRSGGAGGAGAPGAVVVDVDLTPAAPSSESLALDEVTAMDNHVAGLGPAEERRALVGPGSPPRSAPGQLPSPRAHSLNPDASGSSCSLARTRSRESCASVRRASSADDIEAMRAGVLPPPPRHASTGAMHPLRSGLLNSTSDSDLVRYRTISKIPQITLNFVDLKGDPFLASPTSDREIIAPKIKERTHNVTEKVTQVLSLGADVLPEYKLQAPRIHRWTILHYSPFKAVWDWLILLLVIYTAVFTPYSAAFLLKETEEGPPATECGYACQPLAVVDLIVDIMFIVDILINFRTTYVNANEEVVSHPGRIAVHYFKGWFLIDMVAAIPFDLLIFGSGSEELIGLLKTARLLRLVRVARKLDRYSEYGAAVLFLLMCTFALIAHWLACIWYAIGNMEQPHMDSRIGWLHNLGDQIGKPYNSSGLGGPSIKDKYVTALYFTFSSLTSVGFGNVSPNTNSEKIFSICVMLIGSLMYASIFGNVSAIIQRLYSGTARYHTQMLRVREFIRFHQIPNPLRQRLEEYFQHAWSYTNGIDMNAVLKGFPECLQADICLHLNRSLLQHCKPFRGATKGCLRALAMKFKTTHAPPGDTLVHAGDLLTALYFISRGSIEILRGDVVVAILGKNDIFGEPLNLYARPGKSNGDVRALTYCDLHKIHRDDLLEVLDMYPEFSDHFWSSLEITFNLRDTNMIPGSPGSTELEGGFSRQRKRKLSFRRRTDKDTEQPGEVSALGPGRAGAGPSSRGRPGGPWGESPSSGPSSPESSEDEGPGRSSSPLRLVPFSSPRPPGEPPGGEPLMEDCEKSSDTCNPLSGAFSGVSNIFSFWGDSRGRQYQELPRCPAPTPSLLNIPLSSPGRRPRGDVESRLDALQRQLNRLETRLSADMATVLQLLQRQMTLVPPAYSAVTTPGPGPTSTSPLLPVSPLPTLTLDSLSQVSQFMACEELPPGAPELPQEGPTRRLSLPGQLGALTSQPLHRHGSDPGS

**Q.** For `CCN(CC)S(=O)(=O)c1ccc(C(=O)Nc2ccc(OCC(=O)N3CCOCC3)cc2)cc1`, which “hERG current change (%, negative = inhibition) at 10uM” value is on record?
**A.** 8.3%

**Q.** Which “hERG current change (%, negative = inhibition) at 10uM” value does the source give for `CNCCCc1[nH]nc(N)c1C#N` here?
**A.** 4.22%

**Q.** With `COc1cc(OC)c(C2C(C(=O)Nc3ccccc3)=C(C)Nc3ncnn32)cc1OC` (stereo not drawn) as the compound, how does the “hERG current change (%, negative = inhibition) at 10uM” value read?
**A.** -2.97%

**Q.** `C[C@H](NC(=O)C1CCC(CNC(=O)[C@@H]2CCCN2C(=O)OC(C)(C)C)CC1)C(=O)O` (stereo partly drawn) was tested. Which “hERG current change (%, negative = inhibition) at 10uM” value did it give?
**A.** 12.4%

**Q.** `CC(=O)N[C@H]1C[C@@H]1c1ccccc1` was tested. Which “hERG current change (%, negative = inhibition) at 10uM” value did it give?
**A.** -14.2%

**Q.** For `CCCSC1=C(C#N)C(c2ccc(O)c(OC)c2)CC(=O)N1` (stereo not drawn), which “hERG current change (%, negative = inhibition) at 10uM” value is on record?
**A.** -45.1%

**Q.** For `NC(=O)CSc1nnc(-c2ccccc2F)n1C1CC1`, which “hERG current change (%, negative = inhibition) at 10uM” value is on record?
**A.** 20.3%

**Q.** With `COC(=O)c1c(NC(=O)Cn2cc([N+](=O)[O-])cn2)sc2c1CCC2` as the compound, how does the “hERG current change (%, negative = inhibition) at 10uM” value read?
**A.** 11.1%

**Q.** How did the “hERG current change (%, negative = inhibition) at 10uM” value turn out when `CC(O)CNc1cc(N)c([N+](=O)[O-])cc1[N+](=O)[O-]` (stereo not drawn) was run?
**A.** -8.32%

**Q.** How did the “hERG current change (%, negative = inhibition) at 10uM” value turn out when `Cc1ccc(C(=O)N2CCN(S(=O)(=O)c3ccccc3)CC2)s1` was run?
**A.** -7.38%

**Q.** How did the “hERG current change (%, negative = inhibition) at 10uM” value turn out when `O=C(CCC(=O)c1cccs1)NCC(c1ccc(F)cc1)N1CCOCC1` (stereo not drawn) was run?
**A.** -5.89%

**Q.** How did the “hERG current change (%, negative = inhibition) at 10uM” value turn out when `CCC(Oc1ccccc1)C(=O)Nc1ccccc1OC` (stereo not drawn) was run?
**A.** -1.4%

**Q.** For `Cc1nn(CC(=O)NCCCN2CCN(Cc3ccccc3)CC2)c(=O)c2cc(-c3ccccc3)nn12`, which “hERG current change (%, negative = inhibition) at 10uM” value is on record?
**A.** -70.1%

**Q.** Which “hERG current change (%, negative = inhibition) at 10uM” value does the source give for `Cc1ccc2c(c1)N(CC(=O)NC1CCCC1)C(=O)CO2` here?
**A.** 8.92%

**Q.** For `CCC(C)(C)NC(=O)Cc1ccc(C)cc1`, which “hERG current change (%, negative = inhibition) at 10uM” value is on record?
**A.** -1.94%

**Q.** `COc1ccc2[nH]c(=O)c(CN(Cc3cccnc3)C(=O)Nc3ccccc3)cc2c1` was tested. Which “hERG current change (%, negative = inhibition) at 10uM” value did it give?
**A.** -54.6%

**Q.** With `CCOC(=O)c1[nH]c2ccc(C(=O)OC)cc2c1C(=O)OCC` as the compound, how does the “hERG current change (%, negative = inhibition) at 10uM” value read?
**A.** 1.84%

**Q.** Which “hERG current change (%, negative = inhibition) at 10uM” value does the source give for `O=C(CC1C(=O)NCCN1Cc1cccc(Oc2ccccc2)c1)NCC1CCOCC1` (stereo not drawn) here?
**A.** 2.62%

**Q.** How did the “hERG current change (%, negative = inhibition) at 10uM” value turn out when `COc1ccc(OCC(=O)NNC(=O)CCc2ccccc2)cc1` was run?
**A.** 14.2%

**Q.** With `C=CCOc1ccc(/C=C2\SC(=S)N(N3CCOCC3)C2=O)cc1` as the compound, how does the “hERG current change (%, negative = inhibition) at 10uM” value read?
**A.** 10.7%

**Q.** For `C=CCOc1cccc(C(=O)N2CCCC(CNS(=O)(=O)c3cccs3)C2)c1` (stereo not drawn), which “hERG current change (%, negative = inhibition) at 10uM” value is on record?
**A.** -5.84%

**Q.** `CCS(=O)(=O)NCCCc1ccccc1` was tested. Which “hERG current change (%, negative = inhibition) at 10uM” value did it give?
**A.** -2.89%

**Q.** For `COc1ccc(N(CC(=O)Nc2cccc(C)c2)S(=O)(=O)c2ccc(C)cc2)cc1OC`, which “hERG current change (%, negative = inhibition) at 10uM” value is on record?
**A.** -4.53%

**Q.** `Cc1ccc(C)c(NC(=S)NCc2ccccc2)c1` was tested. Which “hERG current change (%, negative = inhibition) at 10uM” value did it give?
**A.** 13.8%

**Q.** How did the “hERG current change (%, negative = inhibition) at 10uM” value turn out when `NS(=O)(=O)c1ccc(CCNC(=O)C(=O)c2cn(CC(=O)N3CCCC3)c3ccccc23)cc1` was run?
**A.** 14.3%

**Q.** For `COc1cccc2cc(C(=O)NC(C)C3CCCO3)c(=O)oc12` (stereo not drawn), which “hERG current change (%, negative = inhibition) at 10uM” value is on record?
**A.** -5.01%

**Q.** With `N#CC1(c2ccc(NC(=O)c3ccccc3)cc2)CCCC1` as the compound, how does the “hERG current change (%, negative = inhibition) at 10uM” value read?
**A.** -5.85%

**Q.** With `CC(C)C1CC(CCNCc2ccc(N(C)C)cc2)(c2ccccc2)CCO1` (stereo not drawn) as the compound, how does the “hERG current change (%, negative = inhibition) at 10uM” value read?
**A.** -24.6%

**Q.** With `CC(C)(C)c1nc2ccc([N+](=O)[O-])cc2[nH]1` as the compound, how does the “hERG current change (%, negative = inhibition) at 10uM” value read?
**A.** -77.7%

**Q.** How did the “hERG current change (%, negative = inhibition) at 10uM” value turn out when `COc1ccc(OC)c(C(=O)c2c(C)oc3cc([N+](=O)[O-])c(O)c([N+](=O)[O-])c23)c1` was run?
**A.** 13.3%

**Q.** With `O=C(COC(=O)c1cccc(Cl)c1)Nc1ccc2[nH]c(=O)[nH]c2c1` as the compound, how does the “hERG current change (%, negative = inhibition) at 10uM” value read?
**A.** 6.53%

**Q.** For `CC(C)(C)NCC(O)c1cc(Cl)c(N)c(Cl)c1.Cl` (stereo not drawn), which “hERG current change (%, negative = inhibition) at 10uM” value is on record?
**A.** -2.17%

**Q.** Which “hERG current change (%, negative = inhibition) at 10uM” value does the source give for `O=C(NCCN1CCOCC1)c1cc2ccccc2oc1=O` here?
**A.** -1.87%

**Q.** With `Cc1ccc(S(=O)(=O)N2CCN(C(=O)COC(=O)C3CC3C)CC2)c(C)c1` (stereo not drawn) as the compound, how does the “hERG current change (%, negative = inhibition) at 10uM” value read?
**A.** -18.9%

**Q.** How did the “hERG current change (%, negative = inhibition) at 10uM” value turn out when `O=c1c2ccccc2nnn1CSc1ccccc1F` was run?
**A.** 6.47%

**Q.** With `O=C(CC1SC(=Nc2ccccc2F)N(CCN2CCOCC2)C1=O)Nc1ccc(F)cc1F` (stereo not drawn) as the compound, how does the “hERG current change (%, negative = inhibition) at 10uM” value read?
**A.** -13.1%

**Q.** For `COc1ccc(S(=O)(=O)N2CCCN(CCC(=O)Nc3cccc(C(F)(F)F)c3)CC2)cc1`, which “hERG current change (%, negative = inhibition) at 10uM” value is on record?
**A.** -69.6%

**Q.** Which “hERG current change (%, negative = inhibition) at 10uM” value does the source give for `O=C1CCCc2oc3ccc(NS(=O)(=O)c4cccc5cccnc45)cc3c21` here?
**A.** -0.328%

**Q.** With `CCc1ccc(C(=O)C23CN4CN(CN(C4)C2)C3)cc1` as the compound, how does the “hERG current change (%, negative = inhibition) at 10uM” value read?
**A.** -0.0263%

**Q.** How did the “hERG current change (%, negative = inhibition) at 10uM” value turn out when `CC(C)NC(=O)c1cnc(N2CCN(c3ccccn3)CC2)c2ccccc12` was run?
**A.** -17.4%

**Q.** `CCOC(=O)N1CCN(C(=O)CSc2ccc3nnc(CCNC(=O)c4ccccc4)n3n2)CC1` was tested. Which “hERG current change (%, negative = inhibition) at 10uM” value did it give?
**A.** 9.93%

**Q.** Which “hERG current change (%, negative = inhibition) at 10uM” value does the source give for `CCC(CC)C(=O)NCCNC(=O)C(CC)CC` here?
**A.** 2.51%

**Q.** With `CC(NC(=O)Cc1cccs1)C(c1cccs1)N1CCOCC1` (stereo not drawn) as the compound, how does the “hERG current change (%, negative = inhibition) at 10uM” value read?
**A.** 1.88%

**Q.** Which “hERG current change (%, negative = inhibition) at 10uM” value does the source give for `CN(C)C=Nc1ccccc1C1C=NNC1=O` (stereo not drawn) here?
**A.** 3.88%

**Q.** For `CC(=O)c1c(N2CCCC2)[nH]c(-c2ccccc2)nc1=S`, which “hERG current change (%, negative = inhibition) at 10uM” value is on record?
**A.** -0.418%

**Q.** How did the “hERG current change (%, negative = inhibition) at 10uM” value turn out when `COc1ccc(-c2cccc(NS(=O)(=O)c3cccc([N+](=O)[O-])c3)c2)nn1` was run?
**A.** -34.1%

**Q.** With `CCOc1ccc(NC(=O)Cn2cc(C(C)=O)c3ccccc32)cc1` as the compound, how does the “hERG current change (%, negative = inhibition) at 10uM” value read?
**A.** 5.55%

**Q.** `COc1ccc(C(=O)c2oc3ccc(Br)cc3c2NC(C)=O)cc1` was tested. Which “hERG current change (%, negative = inhibition) at 10uM” value did it give?
**A.** -0.375%

**Q.** Which “hERG current change (%, negative = inhibition) at 10uM” value does the source give for `CCc1ccc(NS(=O)(=O)c2cc3[nH]c(=O)c(=O)[nH]c3cc2C)cc1` here?
**A.** 9.15%

**Q.** How did the “hERG current change (%, negative = inhibition) at 10uM” value turn out when `CC(=O)c1ccc(S(=O)(=O)NCc2nnnn2-c2ccccc2)cc1` was run?
**A.** -0.0317%

**Q.** For `NCCCC[C@H]1CNC(=O)C(=O)N1CC1CCCCC1`, which “hERG current change (%, negative = inhibition) at 10uM” value is on record?
**A.** 1.26%

**Q.** How did the “hERG current change (%, negative = inhibition) at 10uM” value turn out when `Cc1ccc(N2C(=O)[C@@H]3C(c4cccnc4)=NO[C@@H]3C2=O)c(C)c1` was run?
**A.** 22.3%

**Q.** How did the “hERG current change (%, negative = inhibition) at 10uM” value turn out when `C[C@]12CC[C@H]3[C@@H](CCC4=CC(=O)CC[C@@]43O)[C@@H]1CCC2=O` was run?
**A.** 3.13%

**Q.** Which “hERG current change (%, negative = inhibition) at 10uM” value does the source give for `COc1ccc(C(=O)Nc2cccc(C(=O)N/N=C/c3ccc(OC)cc3OC)c2)cc1` here?
**A.** -1.54%

**Q.** How did the “hERG current change (%, negative = inhibition) at 10uM” value turn out when `CC1(C)CC(NC(=O)COc2ccc([N+](=O)[O-])cc2)CC(C)(C)N1` was run?
**A.** -28.7%

**Q.** For `O=C(COC(=O)c1cccnc1Nc1ccccc1F)NCCN1C(=O)CSC1=O`, which “hERG current change (%, negative = inhibition) at 10uM” value is on record?
**A.** -27.7%

**Q.** How did the “hERG current change (%, negative = inhibition) at 10uM” value turn out when `O=C(NCc1nnc(SCC(=O)N2CCC(Cc3ccccc3)CC2)o1)c1ccco1` was run?
**A.** -23.9%
